In all, about 50,000 compounds went through this assay and about 800 (1.6%) showed an effect of 50% or more. The list shows a part of the results.
Biological target: Bcl-2-like protein 10 (Homo sapiens) (UniProt Q9HD36)
Experiment: Phenotype converters, Bcl-B/TR3 peptide binding displacement, primary biochemical FP (AID 1240);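 note: 0% = Bcl-B with tracer peptide and DMSO and 100% = tracer peptide lacking Bcl-B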
Details: GST-Bcl-B / FITC-TR3 peptide fluorescence polarization; stronger effect = higher value; compound at 3.75 mg/L

UniProt Q9HD36, sequence (Q9HD36 whole entry, looked up): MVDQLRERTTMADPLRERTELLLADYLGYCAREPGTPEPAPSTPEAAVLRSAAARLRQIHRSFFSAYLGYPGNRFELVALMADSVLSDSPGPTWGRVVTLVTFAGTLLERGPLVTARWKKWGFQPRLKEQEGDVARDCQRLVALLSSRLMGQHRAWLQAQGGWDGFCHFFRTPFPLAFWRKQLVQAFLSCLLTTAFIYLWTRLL

Structure (SMILES)	displacement [%]
C(=Nc1ccc2c(c1)OCCOCCOc1cc(N=Cc3ccccc3)ccc1OCCOCCO2)c1ccccc1	5.3
CS(=O)(=O)N(Cc1ccccc1)c1ccccc1C(=O)O	10.5
CCCC(C)NC(=O)c1ccc(OC)c([N+](=O)[O-])c1 (stereo unspecified)	16.4
CCOC(=O)c1c(NC(=O)C2CCCCC2)sc(C(=O)Nc2ccccc2F)c1C	24.1
COc1ccc(Cl)cc1C(=O)Nc1cc2nn(-c3ccc(C)cc3)nc2cc1C	-2
COc1ccccc1/C=N/NC(=O)C(C)Oc1ccc(Cl)cc1 (stereo unspecified)	-2.9
C=COCCNC(=O)C(=O)Nc1ccccc1	-0.6
C=CCOc1c(Cl)cc(/C=C2/C(=O)NN(c3cccc(Br)c3)C2=O)cc1OC	2.6
O=C(Cc1nc2ccccc2[nH]c1=O)Nc1cccc(C(F)(F)F)c1	-2
O=C(Nc1ccccc1Oc1ccccc1)c1cc2cc(Cl)cc(Cl)c2oc1=O	12.8
COc1ccc(/C=C/C(=O)c2ccc(Br)cc2)c(OC)c1	10.2
COC(=O)C1=NNC2(C)C(=O)N(c3ccccc3OC)C(=O)C12 (stereo unspecified)	-3.9
O=C(NCCc1ccc(F)cc1)C(=O)Nc1ccccc1	4.4
Cc1ccc(-n2nc3ccc(NC(=O)c4ccccc4F)cc3n2)cc1	3.9
Cc1ccc(OCC(=O)Nc2cccc(S(N)(=O)=O)c2)cc1C	-2.7
Nc1ccc2nc(SCC(=O)N3CCOCC3)sc2c1	-0.3
O=C(N/N=C/c1ccc([N+](=O)[O-])cc1)c1cc(-c2ccc(Cl)cc2)n[nH]1	-8.7
CCNC(=S)NNC(=O)c1cc(-c2ccccc2)nc2ccccc12	-13.1
Cc1ccc(C#N)c(SCC(N)=O)n1	-9.8
Cc1ccc(/C=C/C(=O)Nc2cccc(C(F)(F)F)c2)o1	0.3
Cc1cccc(N2C(=O)/C(=C/c3ccccc3[N+](=O)[O-])SC2=S)c1C	3.2
Cc1ccc(-c2nc3ncccc3o2)cc1NC(=O)C1CCCCC1	4.5

Structure (SMILES)	displacement [%]
CCOC(=O)C1=C(C)N(c2ccccc2)C(=S)NC1c1ccc(OC)cc1 (stereo unspecified)	-16.5
COc1ccc(OC)c(C(O)c2nc3ccccc3n2C(C)C)c1 (stereo unspecified)	-11.6
COCCCNC(=O)CN(c1ccc(Br)cc1)S(C)(=O)=O	3.3
Cc1ccccc1C(=O)Nc1cccc(NC(=O)c2ccc(-c3cccc(Cl)c3)o2)c1	0.6
CCc1cc2c(s1)SC(c1ccc([N+](=O)[O-])cc1)NC2=O (stereo unspecified)	12.6
CCOC(=O)Cc1cc(OC)c(OC)cc1/C(C)=N/Nc1ccccc1	-6
CCC(CO)N=CC1=C(O)C(C(=O)c2ccccc2)CCC1=O (stereo unspecified)	14.8
CN1C(=O)/C(=C2\SC(=S)N(C3CCCCC3)C2=O)c2ccccc21	-3.1
COC(=O)C1=C(C)N(c2ccc(Cl)cc2)/C(=C\c2ccc(OCC(=O)Nc3ccccc3OC)cc2)C1=O	10.4
C(=N\Nc1nncn1/N=C/c1ccccc1)/c1ccccc1	-0.9
Cc1cc(C)nc(NC(=O)c2cc(-c3ccc(C)s3)nc3ccccc23)c1	13.1
Cc1ccc(OCC(=O)Oc2ccc(Cl)cc2C)cc1C	8.7
C=CCc1cccc2cc(C(=O)Nc3ccc([N+](=O)[O-])cc3C)c(=O)oc12	-3.3
Cc1ccc(-n2c(O)c(/C=N/N(C)C)c3ccccc3c2=O)cc1	1.8
CCOc1cc(/C=N/n2cnnc2)ccc1OCCOc1ccc(C(C)CC)cc1 (stereo unspecified)	-1
Cc1ccc(OCC(=O)NNC(=O)c2cccc(F)c2)c(C)c1	1.1
Nc1nc(/C=C/c2cccc([N+](=O)[O-])c2)cc(/C=C/c2cccc([N+](=O)[O-])c2)n1	15.4
Cc1ccc(C(=O)N/C(=C\c2cccc([N+](=O)[O-])c2)C(=O)Nc2ccc(C)c(C)c2)cc1	-0.9
O=C(CSCC(=O)Nc1ccccc1[N+](=O)[O-])Nc1ccccc1	-17.7
CN1C(=O)c2ccc(NCCN3C(=O)c4ccccc4C3=O)cc2C1=O	-5.3
CCOC(=O)C1=C(O)/C(=C/c2cccc(Br)c2)SC1=Nc1ccc([N+](=O)[O-])cc1	63.1
COc1ccccc1-c1nnc(NC(=O)c2ccc(F)cc2)s1	0.7

Structure (SMILES)	displacement [%]
COc1ccccc1-c1c(C#N)c(N)c(C#N)c2c1CCCC2	-1.1
O=C(NC1CS/C(=C/c2ccccc2)C1O)c1ccccc1 (stereo unspecified)	1.2
CC1=C(C(=O)Nc2ccc(Cl)cc2)C(c2cccc([N+](=O)[O-])c2)NC(=S)N1 (stereo unspecified)	11.6
COc1ccc(NC(=O)C(=O)NCc2ccco2)cc1OC	14.1
Cc1ccc(NC(=O)c2cc3ccccc3o2)cc1	2.5
COc1ccc(/C=C(\NC(=O)c2ccc(Cl)cc2)C(=O)NCC2CCCO2)cc1OC (stereo unspecified)	8.3
COc1ccc(C(=O)/C=C/c2cn(Cc3ccccc3)c3ccccc23)cc1	9.7
O=C(O)c1ccc(-c2ccc(-c3nc4sc5c(c4c(=O)[nH]3)CCCC5)o2)cc1	-32.4
COc1ccc(CC(=O)Nc2ccc(Nc3ccccc3)cc2)cc1OC	0
CCCCN(CCCC)S(=O)(=O)c1ccc(Cl)cc1	11.4
CC(C)OC(C(=O)c1ccccc1)c1ccccc1 (stereo unspecified)	10
O=C(NNc1nc2ccccc2s1)c1cccnc1	-21.3
COc1cc([N+](=O)[O-])ccc1NC(=O)c1cc(Cl)ccc1OC	1.8
CN(/C(=N/S(=O)(=O)c1ccccc1)c1ccccc1)S(=O)(=O)c1ccccc1	2.9
O=C(/C=C/c1ccc(Cl)cc1)Nc1ccc(NC(=O)c2ccco2)cc1	5.8
O=C(Nc1ccccc1)C1CC(=O)N(c2cccc([N+](=O)[O-])c2)C1 (stereo unspecified)	-4.9
Cc1cccc(NC(=O)c2ccccc2NC(=O)c2ccccc2)c1	-4.2
Cc1cc(C(=O)N/N=C/c2ccccc2[N+](=O)[O-])n[nH]1	-13.5
Clc1ccc(Oc2nc3ccccc3n3cnnc23)cc1	15.8
O=C(Nc1cc(C(F)(F)F)cc(C(F)(F)F)c1)c1ccc2c(c1)OCCO2	8.8
O=C1/C(=C\c2ccccc2OS(=O)(=O)c2ccccc2[N+](=O)[O-])SC(=S)N1Cc1ccccc1	-1.4
CC(O)C(=O)NS(=O)(=O)c1ccccc1 (stereo unspecified)	9.6

Structure (SMILES)	displacement [%]
c1ccc(Cn2ncc3c(N4CCN(c5ccccn5)CC4)ncnc32)cc1	-7.6
COc1ccc2c(c1)-c1c(sn(-c3ccc(OC)c(OC)c3)c1=S)C(C)(C)N2	15.4
COCCNC(=O)CN(c1ccc(C)cc1)S(C)(=O)=O	9.9
O=C(Nc1nc(-c2ccccc2)cs1)c1ccc2c(c1)OCO2	10.2
COc1ccc(C(=O)Nc2ccc(S(=O)(=O)Nc3cc(OC)ncn3)cc2)c(OC)c1	10.1
O=C(NCCCO)Nc1ccc2nc(-c3ccccc3)c(-c3ccccc3)nc2c1	-8.9
COc1ccc(C2CC(C(F)(F)F)n3nc(C(=O)N4CCCC4)c(Cl)c3N2)cc1OC (stereo unspecified)	7
COc1ccccc1C(=O)Nc1ccc(Br)cc1	12.4
O=C(Nc1cccc(Cl)c1Cl)c1ccc(CN2CCc3ccccc3C2)cc1	-2.7
COc1ccc(OC)c(NC(=O)C(=O)N/N=C/c2ccc(OC)cc2OC)c1	12.9
CCN(CC)c1ccc(/C=N/NC(=O)/C(=C\c2ccc3c(c2)OCO3)NC(=O)c2ccccc2)cc1	30.3
O=C1CSC(=S)N1c1ccc(F)c(Cl)c1	8.7
CCOc1ccccc1NC(=O)CN(c1cc(OC)ccc1OC)S(C)(=O)=O	13.1
Cc1ccc(/C=C2/SC(=S)N(NC(=O)c3ccccc3C)C2=O)cc1	-10.3
O=C(Nc1ccc(OC(F)(F)F)cc1)c1cnn2c(C(F)(F)F)cc(-c3ccco3)nc12	-7.5
O=C(N/N=C/c1cc2ccccc2[nH]1)c1ccccc1	8.7
CCCCNC(=O)n1ccc(C(=O)Nc2ccc(C)cc2C)n1	4.5
COc1cc(OC)c([N+](=O)[O-])cc1/C=C1/C(=O)NC(=O)N(c2ccc(Br)cc2)C1=O	8.8
COc1ccc(C/C(N)=N/OC(=O)c2cccc([N+](=O)[O-])c2)cc1	8.1
O=c1cc(-c2ccc([N+](=O)[O-])cc2)nc2cc(-c3cccc(F)c3)[nH]n12	13.2
CCOc1cc(-c2ccc3c(c2)OCO3)cc(=O)c2c(C)oc(C)c12	4.7
Clc1ccccc1CN1CCN(N=Cc2ccc(Br)cc2)CC1	-1.3

Structure (SMILES)	displacement [%]
Cc1ccc(C)c(-c2csc(NC(=O)C3C4CCC(C4)C3C(=O)O)n2)c1 (stereo unspecified)	1
CCOc1c(Cl)cc(/C=C2\C(=O)NC(=O)N(c3ccc(C)cc3)C2=O)cc1OC	-11.3
O=c1oc(/C=C\c2ccccc2)nc2ccc(Br)cc12	10.7
Oc1ccccc1C1=Nc2ccccc2N=C(C(F)(F)F)C1	4
COc1ccc(C(=O)Nc2ccccc2C(=O)Nc2ccc(C(=O)O)cc2)cc1	25.2
O=S(=O)(c1ccccc1)N1CCN(C/C=C/c2ccccc2)CC1	-2.3
Cc1ccc(/C=C2\N=C(c3ccc(Cl)cc3)OC2=O)o1	11.6
O=C1/C(=C/c2c(F)cccc2Cl)SC(=S)N1CCc1ccccc1	12.1
C=CCN1C(=O)/C(=C\C(Br)=C\c2ccccc2)SC1=S	6.5
CCCOc1ccc(N2C(=O)CC(N(Cc3ccco3)C(=S)Nc3ccccc3)C2=O)cc1 (stereo unspecified)	-3.2
O=C1C(=O)N(c2cccc(Br)c2)C(c2ccc([N+](=O)[O-])cc2)/C1=C(/O)c1ccccc1 (stereo unspecified)	-0.1
CC(=O)Nc1cc(C(=O)O)cc(C(=O)O)c1	-3.5
COc1ccc(N(CC(=O)Nc2ccccc2Cl)S(=O)(=O)c2ccc(OC)c(OC)c2)cc1	-41.6
Cc1ccccc1-n1c(O)c(C=NCCCn2ccnc2)c(=O)[nH]c1=O	-3.4
O=C(Nc1ccc(-c2nc3ncccc3o2)cc1)c1ccc(Br)o1	-1.9
CCN(CC)c1ccc(N2C(=O)/C(=C/c3ccccc3Cl)SC2=S)cc1	0.3
COc1ccc(C(N)=O)cc1NC(=O)C(C)Oc1ccccc1 (stereo unspecified)	-0.2
O=C(O)c1cc(NC(=O)c2ccc(Cl)c(Cl)c2)cc(C(=O)O)c1	4.5
